The nature of assay [1]: qHTS Assay for Lipid Storage Modulators (AID 1519). The following applies: Drosophila S3 cells, BODIPY lipid droplet/cell ratio, laser cytometry, cells loaded with oleic acid. Put shortly:
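Cells seeded at 5,000 per well were treated with compounds over a concentration series and loaded with oleic acid (400 uM, as added). Lipid droplet fluorescence (488 nm excitation, 500-530 nm channel) was read by laser-scanning cytometry and normalized to 20 uM Triacsin C.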
In general terms: Quantitative high-throughput screening tests each substance at several concentrations.

Assay [2] can be described thus: qHTS for identification of novel therapeutic agents for treatment of microphthalmiaassociated transcription factor (MiT) renal cell carcinoma (RCC) (AID 1963991). The following applies: CellTiter-Glo, 48 h, stronger effect = lower value. Summed up: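 Curves over 11 concentrations were fitted to CellTiter-Glo luminescence, scaled between empty wells (0%) and DMSO (100%) viability. Cells were UOK109, UOK124 and UOK145 TFE3-fusion RCC lines at 500/well, exposed 48 hours at 37 C.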

Assay [3] can be described thus: S16 Schwann cell PMP22 intronic element beta-lactamase assay (AID 624044). Further: nearly all actives have a fitted effect of over 15% in size. The following applies: S16 rat Schwann cells, PMP22 element beta-lactamase FRET, 24 h; measured here: 460 nm blue channel. Put shortly:
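Rat S16 Schwann cells with beta-Lac driven by a PMP22 intronic element, compound-treated 24 h at 37 °C. LiveBLAzer FRET B/G read: 460 nm normalized to potassium clavulanate vs DMSO; 535 nm FRET as viability; concentration-effect curves classified.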

Assay [4] can be described thus: qHTS drug screen for cell cycle checkpoint inhibitors in PARPi-resistant BRCA-mutant ovarian cancer cell lines. (AID 1963452). The following applies: PEO1/OlaR viability, CellTiter-Glo luminescence, 96 h. Put shortly:
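PEO1, PEO4 and PEO1/OlaR ovarian cancer cells, 600 per well, exposed 96 h at 37C to a dilution series. Viability read by CellTiter-Glo luminescence, normalized to DMSO and empty wells; activity summarized as Z-AUC.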

Assay [5] can be described thus: qHTS Assay for Modulators of Human Peripheral Myelin Protein 22 (PMP22) Expression/Activity (AID 1967). The following applies: Cell-based PMP22 reporter, dual-color luciferase ratio. Summed up: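 Readout is the corrected green/red luminescence ratio after 24 h compound exposure, normalised to untreated cells (0%). Engineered MSC80 mouse Schwann cells express green luciferase from the mouse Pmp22 promoter and red luciferase from EF-alpha as internal control.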

Assay [6] can be described thus: qHTS Validation Assay to Find Inhibitors of Chronic Active B-Cell Receptor Signaling (AID 485345). The following applies: ABC-DLBCL cells, chronic BCR signaling reporter. Put shortly: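 Read-out: ratio of filter-corrected green (IkappaBalpha fusion) to red (native) luciferase signal in doxycycline-induced TMD8 cells after 4 h at 37C. Titration spanned 46 uM–3 nM; Data were normalised to basal cells and 10 uM MG-132 wells.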

Assay [7] in a line: qHTS Assay for Inhibitors of PDE-IV (AID 607).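 Further: parental cells stimulated with forskolin 10 µM plus RO 20-1724 100 µM.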 The following applies: HEK293 ACTOne CNG channel cells, membrane potential fluorescence; measured here: parental cell counter-screen. Put shortly:
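Cell-based read-out of cAMP via a modified cyclic nucleotide-gated channel and membrane potential dye (535/590 nm) in HEK293 cells expressing PDE4 endogenously. Compounds tested up to 22.9 uM final; 100 uM RO 20-1724 reference.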

Assay [8] in a line: qHTS assay for small molecule antagonists of peroxisome proliferator-activated receptor delta signaling (AID 588535).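 Further: cells co-treated with a PPAR-delta agonist as stimulator during compound exposure.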 The following applies: HEK293T PPARd-UAS-bla, beta-lactamase FRET ratio, 18 h; 460 nm channel. Put shortly:
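Cell-based beta-lactamase assay in antagonist mode: 4000 HEK293T PPAR-delta-UAS-bla cells per well, 5 hr preincubation then 18 hr compound incubation at 37 C. IC50 obtained by Hill equation fitting.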

A short description of assay [9]: qHTS assay for small molecule antagonists of peroxisome proliferator-activated receptor gamma signaling (AID 588537). The following applies: HEK293 PPARg-UAS-bla, beta-lactamase ratio, antagonist mode; measured here: W460 blue channel. Summed up:
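Inhibitors of agonist-stimulated UAS-bla reporter activity were sought in HEK293 cells; rosiglitazone (50 nM) defined full signal and DMSO baseline. Curves fitted to Hill model gave IC50 and efficacy.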

The nature of assay [10]: qHTS assay for small molecule agonists of retinoid X receptor alpha signaling (AID 588544). The following applies: HEK293T RXRa-UAS-bla, beta-lactamase reporter, 18 h; 530 nm emission.
The nature of assay [11]: qHTS assay for small molecule antagonists of retinoid X receptor alpha signaling (AID 588546).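 Further: cells stimulated with 9-cis-retinoic acid as agonist; on the % scale 0 is the no-effect control and ±100 the full control effect.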 The following applies: HEK293T RXRa-UAS-bla, beta-lactamase ratio, antagonist mode; measured here: W530 green channel, cytotoxicity proxy. Summed up:
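Beta-lactamase reporter inhibition, read as CCF4 fluorescence ratio (ex 405, em 460/530 nm) after 2 h at RT. HEK293T UAS-bla cells, 2500/well, were stimulated with 9-cis-RA at 500 or 100 nM final alongside test compound for 18 h at 37 C.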

Setting [12] is: measured here: cell count channel max response.
Setting [13] is: measured here: lipid (BODIPY) channel AC50.
[14] abbreviates: measured here: lipid channel max response.
Where [15] appears, read: measured here: cell number channel AC50.
[16] abbreviates: measured here: PEO1 parental viability.
Setting [17] is: measured here: red reporter channel AC50, EF-alpha promoter control reporter in MSC80 mouse Schwann cells.
The mark [18] stands for this setting: measured here: green reporter channel AC50, mouse Pmp22 promoter in mouse Schwann cells.

SMILES strings stand for the structures. “And” between values parts separate entries of the source, which are not always exact repeats. Equal entries are not always repeated. The list shows a part of the results. These are further read-outs of the screen, such as a control signal, another cell line or another target. No call is given for them. For some assays here: The list favours compounds with an active or inconclusive main result. For some assays here: Potencies come from curve fits of mixed quality, noted in brackets.
Tags describe the fitted curve by direction and shape.

Regarding `COc1ccnc(CS(=O)c2nc3ccc(OC(F)F)cc3[nH]2)c1OC` (configuration not stated), the figures for the max response in assay [1] (setting [12]) and in assay [1] (setting [14]) were 23.5% and 43.7%, respectively. In addition, the AC50 in assay [1] (setting [13]) was 20 µM [rising, partial curve]. In addition, the z-score in [2] (TFE3-RCC UOK109 viability, measured here: UOK109 Z-AUC) was 0.237; in assay [2] (TFE3-RCC viability, measured here: UOK124 Z-AUC) it was 0.532; in assay [2] (TFE3-RCC viability, measured here: UOK145 Z-AUC), -0.0816.
As to `O=c1[nH]c(=O)n([C@H]2C[C@H](O)[C@@H](CO)O2)cc1F`, the max response came out at 35.4% in assay [1] (setting [12]) and 49.7% in assay [1] (setting [14]). The AC50 in assay [1] (setting [15]) is 0.0224 µM [falling, full curve, poor fit]; in [3], 0.00891 µM [falling, full curve]; in assay [4] (setting [16]) it was 0.275 µM [falling, full curve]; in [4] (measured here: PEO4 viability) it was 0.155 µM [falling, full curve].
`N#C/C(=C\c1ccc(O)c(O)c1)C(=O)NCc1ccccc1`: the max response in [1] (setting [12]) is 64.5% and 50.2%; in assay [1] (setting [14]) it was 15.7% and 51.9%. The AC50 was 31.6 µM [rising, partial curve, poor fit] in [1] (setting [15]); 33.8 µM [falling, partial curve, poor fit] in assay [5] (setting [17]); 20.6 µM [falling, single point] in assay [6] (measured here: CBG/CBR ratio read-out); 29.1 µM [falling, single point] in assay [6] (measured here: CBR control luciferase (viability counter)); 27.5 µM [falling, partial curve, poor fit] in [4] (setting [16]); 24.5 µM [falling, single point] in [4] (measured here: PEO4 viability).
On to `CC(C)(Oc1ccc(Cl)cc1)C(=O)O`, for which the AC50 in assay [7] was 10 µM [rising, partial curve]; in [1] (setting [13]) it was 31.6 µM [rising, partial curve] and 35.5 µM [rising, single point]. Further, the max response is 45.3% and 23.4% in assay [1] (setting [12]); 57.1% and 38% in assay [1] (setting [14]); -24.2% in [8].
`O=C(O)CCc1nc(-c2ccccc2)c(-c2ccccc2)o1`: the AC50 is 10 µM [rising, partial curve] and 7.94 µM [rising, partial curve] in assay [7]; 22.4 µM [rising, partial curve, poor fit] in assay [1] (setting [13]); 84.9 µM [falling, single point] in [5] (setting [17]). For the same compound, the max response in assay [1] (setting [12]) is 24.4% and 58.5%; in assay [1] (setting [14]) it was 46% and 60%.
Regarding `COc1ccccc1N1CCN(CCCCNC(=O)c2ccc3ccccc3c2)CC1`, the max response stood at 56.3% in assay [1] (setting [12]) and 59.6% in assay [1] (setting [14]). Also, the AC50 was 0.00447 µM [rising, full curve, poor fit] in [1] (setting [15]); 42.6 µM [falling, full curve] in assay [5] (setting [18]); 37.9 µM [falling, partial curve] in assay [5] (setting [17]).
As for `CCCCCN=c1ccn(Cc2ccccc2)c2ccccc12`, the AC50 in assay [7] is 15.8 µM [rising, partial curve]; in [1] (setting [15]) it was 0.631 µM [rising, full curve, poor fit]. Further, the max response in assay [1] (setting [12]) is 37.1%; in assay [1] (setting [14]), -84.3%.
For the compound `CC(C)(Oc1ccc(CCNC(=O)c2ccc(Cl)cc2)cc1)C(=O)O`, the max response in assay [1] (setting [12]) was determined as 25.3%; in assay [1] (setting [14]) it was 36.6%; in [8], 69.5%. The AC50 in assay [1] (setting [13]) was 39.8 µM [rising, single point].
With `Cn1cccc1C(=O)N1CCC2(CCCN(c3ncccn3)C2)CC1`, the AC50 in assay [7] is 3.98 µM [rising, single point]; in assay [1] (setting [13]), 0.708 µM [rising, full curve, poor fit]. Further, the values for the max response in assay [1] (setting [12]) and in assay [1] (setting [14]) were 19.5% and 26.8%, respectively.
Take `Nc1ccc(S(=O)(=O)c2ccc(N)cc2)cc1`: the max response in assay [1] (setting [12]) was 26.3%; in assay [1] (setting [14]) it was 41.2%; in assay [10], -0.122%; in [11], 2.49%. The AC50 in assay [1] (setting [13]) is 39.8 µM [rising, single point]; in [9] it was 63.1 µM [rising, single point].
As for `CCOC(=O)C1=C(C)NC(C)=C(C(=O)OC)C1c1cccc([N+](=O)[O-])c1` (configuration not stated), the max response in assay [1] (setting [12]) came to 20.8%; in assay [1] (setting [14]), 30.6%. Besides, the AC50 in [1] (setting [13]) was 3.98 µM [rising, partial curve, poor fit]; in assay [5] (setting [18]), 95.3 µM [falling, single point]; in [5] (setting [17]), 84.9 µM [falling, partial curve, poor fit].
Consider `CCOc1ccc(NC(C)=O)cc1`, for which the figures for the max response in assay [1] (setting [12]) and in assay [1] (setting [14]) were 28.7% and 50.5%, respectively. Besides, the AC50 in assay [1] (setting [13]) was 39.8 µM [rising, single point]; in [9] it was 50.1 µM [rising, single point].

What is called AC50 is the concentration at which the activity in the assay is half-maximal.
